The other results are listed elsewhere or left out.
Key:
Experiment in all cases: glycan array binding signal (z-score within array); higher = stronger binding
Conditions in all cases: glycan notation: IUPAC condensed, linker removed
[1] = target: Gal(b1-4)GlcNAc(b1-2)[Gal(b1-4)GlcNAc(b1-4)]Man(a1-3)[GlcNAc(b1-4)][Gal(b1-4)GlcNAc(b1-2)Man(a1-6)]Man(b1-4)GlcNAc(b1-4)GlcNAc
Procedure, shortened: (§1)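 Glycan array data were curated from 3228 arrays in the Consortium for Functional Glycomics database and kept only where the protein sequence was available. Glycan names were converted to IUPAC-condensed notation, and columns mapping to the same glycan were averaged. The binding signal is a within-array Z-score, averaged across arrays of the same protein sequence at different concentrations or buffers and across linkers. Negative Z-scores can be read as non-binding.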

[2] = target: Gal(b1-4)GlcNAc(b1-2)[Gal(b1-4)GlcNAc(b1-4)]Man(a1-3)[GlcNAc(b1-4)][Gal(b1-4)GlcNAc(b1-2)[Gal(b1-4)GlcNAc(b1-6)]Man(a1-6)]Man(b1-4)GlcNAc(b1-4)GlcNAc
Procedure, shortened: as §1

[3] = target: Gal(b1-4)GlcNAc(b1-2)[Gal(b1-4)GlcNAc(b1-4)]Man(a1-3)[GlcNAc(b1-4)][Gal(b1-4)GlcNAc(b1-2)[Gal(b1-4)GlcNAc(b1-6)]Man(a1-6)]Man(b1-4)GlcNAc(b1-4)[Fuc(a1-6)]GlcNAc
Procedure, shortened: as §1

[4] = target: Gal(b1-4)GlcNAc(b1-2)[Gal(b1-4)GlcNAc(b1-6)]Man(a1-6)[Gal(b1-4)GlcNAc(b1-2)Man(a1-3)]Man(b1-4)GlcNAc(b1-4)GlcNAc
Procedure, shortened: as §1

[5] = target: Gal(b1-4)GlcNAc(b1-2)[Gal(b1-4)GlcNAc(b1-6)]Man(a1-6)[Gal(b1-4)GlcNAc(b1-2)Man(a1-3)]Man(b1-4)GlcNAc(b1-4)[Fuc(a1-6)]GlcNAc
Procedure, shortened: as §1

[6] = target: Gal(b1-4)GlcNAc(b1-2)[Gal(b1-4)GlcNAc(b1-6)]Man(a1-6)[GlcNAc(b1-4)][Gal(b1-4)GlcNAc(b1-2)Man(a1-3)]Man(b1-4)GlcNAc(b1-4)GlcNAc
Procedure, shortened: as §1

[7] = target: Gal(b1-4)GlcNAc(b1-3)Gal(b1-3)GlcNAc
Procedure, shortened: as §1

[8] = target: Gal(b1-4)GlcNAc(b1-3)Gal(b1-4)Glc
Procedure, shortened: as §1

[9] = target: Gal(b1-4)GlcNAc(b1-3)Gal(b1-4)GlcNAc
Procedure, shortened: as §1

[10] = target: Gal(b1-4)GlcNAc(b1-3)Gal(b1-4)GlcNAc(b1-3)Gal(b1-4)GlcNAc
Procedure, shortened: as §1

[11] = target: Gal(b1-4)GlcNAc(b1-3)Gal(b1-4)[Fuc(a1-3)GlcNAc(b1-6)]Gal(b1-4)Glc
Procedure, shortened: as §1

[12] = target: Gal(b1-4)GlcNAc(b1-3)Gal(b1-4)[Fuc(a1-3)]GlcNAc(b1-3)Gal(b1-4)[Fuc(a1-3)]GlcNAc
Procedure, shortened: as §1

[13] = target: Gal(b1-4)GlcNAc(b1-3)GalNAc
Procedure, shortened: as §1

[14] = target: Gal(b1-4)GlcNAc(b1-3)[Gal(b1-4)GlcNAc(b1-6)]Gal(b1-4)GlcNAc
Procedure, shortened: as §1

[15] = target: Gal(b1-4)GlcNAc(b1-3)[Gal(b1-4)GlcNAc(b1-6)]GalNAc
Procedure, shortened: as §1

[16] = target: Gal(b1-4)GlcNAc(b1-3)[GlcNAc(b1-6)]Gal(b1-4)GlcNAc
Procedure, shortened: as §1

[17] = target: Gal(b1-4)GlcNAc(b1-6)Gal(b1-4)GlcNAc
Procedure, shortened: as §1

[18] = target: Gal(b1-4)GlcNAc(b1-6)GalNAc
Procedure, shortened: as §1

[19] = target: Gal(b1-4)GlcNAc(b1-6)[Gal(b1-3)]GalNAc
Procedure, shortened: as §1

[20] = target: Gal(b1-4)GlcNAc6P
Procedure, shortened: as §1

[21] = target: Gal(b1-6)Gal
Procedure, shortened: as §1

[22] = target: Gal3S(b1-3)GalNAc
Procedure, shortened: as §1

[23] = target: Gal3S(b1-3)GlcNAc
Procedure, shortened: as §1

[24] = target: Gal3S(b1-3)[Fuc(a1-4)]GlcNAc
Procedure, shortened: as §1

[25] = target: Gal3S(b1-4)Glc
Procedure, shortened: as §1

[26] = target: Gal3S(b1-4)Glc6S
Procedure, shortened: as §1

[27] = target: Gal3S(b1-4)GlcNAc
Procedure, shortened: as §1

[28] = target: Gal3S(b1-4)GlcNAc6S
Procedure, shortened: as §1

[29] = target: Gal3S(b1-4)[Fuc(a1-3)]Glc
Procedure, shortened: as §1

[30] = target: Gal3S(b1-4)[Fuc(a1-3)]Glc6S
Procedure, shortened: as §1

B1: CvGal1 (Crassostrea virginica), A7Y0I5 (protein)
chain: MTYQISKISQPFTSYIPNGLHIGKHLLLRGRVSYGTEAFAINLQQNPEPCNGEVAFHFNPRPGEQQCVRNSFDGGSWMDEERDQPHFPFDEGRSFTLRIEVAEEGFRTYVNGKPYVNFSHRLDLGNVHYLYLTEGAEFYDISYQDRYTLPYKSEIPQQMNVGKAVRIRGASQDNDGFSVNFACDPDNENCAFHFNPRPNEGVVVRNANLGGWGDEERDYEAEFPFHPYNYFDAMFICTDDKYLVHVNDKYFTEFNHRGGVDASSFFNIVGNLDIQDVEYFEPLEDDFVKTIPSGLVKGDVLIFRGFMKPGGDTFSINFMNGYSVEDDIAFHLNPRVGEGQVVMNCCMGGAWGDEEREDIPSPLADREPFEVKVVVKKNKFKVYVNGKKCMKFAARGNLEDIKGVNIKGEAYVYEVKLERKLEDSWEYLPGGFRVGGWVVVQAIPKKGSEGFAINFRTGSDEDSDIAFHFNPRLQENCTIRNSCAGGAWGGEERDQPDFPFEKKDTCEIAIQAQPDRFVTYVNGKRYIEFNHRLPLESITCVELTGRADFFEPKFF
- glycan array binding signal (z-score) [1]: 0.373
- glycan array binding signal (z-score) [2]: 0.119
- glycan array binding signal (z-score) [3]: -0.057
- glycan array binding signal (z-score) [4]: -0.201
- glycan array binding signal (z-score) [5]: -0.134
- glycan array binding signal (z-score) [6]: -0.118
- glycan array binding signal (z-score) [7]: -0.209
- glycan array binding signal (z-score) [8]: -0.253
- glycan array binding signal (z-score) [9]: -0.214
- glycan array binding signal (z-score) [10]: -0.172
- glycan array binding signal (z-score) [11]: -0.264
- glycan array binding signal (z-score) [12]: -0.264
- glycan array binding signal (z-score) [13]: -0.248
- glycan array binding signal (z-score) [14]: 0.12
- glycan array binding signal (z-score) [15]: -0.236
- glycan array binding signal (z-score) [16]: -0.268
- glycan array binding signal (z-score) [17]: -0.269
- glycan array binding signal (z-score) [18]: -0.267
- glycan array binding signal (z-score) [19]: -0.281
- glycan array binding signal (z-score) [20]: -0.272
- glycan array binding signal (z-score) [21]: -0.276
- glycan array binding signal (z-score) [22]: -0.239
- glycan array binding signal (z-score) [23]: -0.142
- glycan array binding signal (z-score) [24]: -0.258
- glycan array binding signal (z-score) [25]: -0.263
- glycan array binding signal (z-score) [26]: -0.22
- glycan array binding signal (z-score) [27]: -0.277
- glycan array binding signal (z-score) [28]: -0.288
- glycan array binding signal (z-score) [29]: -0.315
- glycan array binding signal (z-score) [30]: -0.223
